# Source: PubChem BioAssay (Tox21)
# Several values for one entry are separate records, joined by “and”; a condition that tells them apart may be missing. Equal entries are not always repeated. The inconclusive results got no clear call from the source; some entries with a clear call stand among them for comparison. Where the call is inconclusive, the potency comes from a doubtful curve fit. Activity calls are given as the source filed them. Unless noted, calls follow the shape of the dose curve; as a rule, active = well fitted curve in the direction sought with a large enough effect in the repeat runs; inconclusive = weak or mixed curves; inactive = no such curve, though single readings can be large; an effect the other way counts as inactive or inconclusive.
# Assays:
# [1] = target: Aryl hydrocarbon receptor (Homo sapiens) (UniProt P35869); experiment: qHTS assay to identify small molecule that activate the aryl hydrocarbon receptor (AhR) signaling pathway (AID 743085); also: nearly all actives have a fitted effect of over 15% in size
# How it was run: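 Cell line HG2L7.5c1 (human hepatoma, 20× DRE-luc). Plated, 5 h 37C, compound/DMSO added, 24 h 37C. CellTiter-Fluor 30 min 37C → fluorescence; then ONE-Glo 30 min RT → luminescence.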
# [2] = target: Peroxisome proliferator-activated receptor gamma (Homo sapiens) (UniProt P37231); experiment: qHTS assay to identify small molecule antagonists of the peroxisome proliferator-activated receptor gamma (PPARg) signaling pathway (AID 743191; calls by dose curve; also: nearly all actives have a fitted effect of over 30% in size; as to ratio activity, negative = inhibition: % is scaled to controls: 0 for no effect and ±100 for the full control effect); details: HEK293H PPARg-UAS-bla, beta-lactamase ratio, antagonist, 17 h
# How it was run: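 Beta-lactamase reporter under UAS control in HEK293H PPARg-bla cells; compound treatment 17 h at 37C. Read-out: fluorescence intensity after 1 h room-temperature incubation with LiveBLAzer B/G FRET substrate.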
# [3] = qHTS assay to identify small molecule antagonists of the peroxisome proliferator-activated receptor gamma (PPARg) signaling pathway - cell viability counter screen (AID 743194); details: PPARg-bla HEK293H viability, CellTiter-Glo luminescence, 17 h, co-treated with 50 nM rosiglitazone; activity change, negative = cytotoxicity: at 62.6 µM (top of the series) unless noted; also: nearly all actives have a fitted effect of over 55% in size; as to activity change, negative = cytotoxicity: % is scaled to controls: 0 for no effect and ±100 for the full control effect
# How it was run: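 Viability was measured as CellTiter-Glo luminescence in GeneBLAzer PPARg UAS-bla HEK293H cells. These cells had been exposed 17 h at 37 C to compounds together with rosiglitazone at 50 nM final, with the beta-lactamase readout taken in the same wells.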
# [4] = qHTS assay for small molecule agonists of the antioxidant response element (ARE) signaling pathway (AID 743202; active = well fitted activation curve with a large enough effect in the signal ratio in the repeat runs, not every such curve was filed as active; inconclusive = weak or mixed curves, or effect the other way; inactive = no such curve, though single readings can be large or run the other way; the % refers to the signal ratio; as to activation: % is scaled to controls: 0 for no effect and ±100 for the full control effect); details: HepG2 ARE-bla reporter, beta-lactamase FRET, 16 h; activation: at 73.3 µM (top of the series) unless noted
# How it was run: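 After 16 hours of compound treatment at 37 C, HepG2 cells with a stably integrated ARE-driven beta-lactamase reporter were loaded 2 hours at room temperature with LiveBLAzer B/G FRET substrate and fluorescence intensity measured.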
# [5] = qHTS assay to identify small molecule agonists of the peroxisome proliferator-activated receptor delta (PPARd) signaling pathway - cell viability counter screen (AID 743211); details: PPARd-bla HEK293H viability, CellTiter-Glo luminescence, 17 h; activity change, negative = cytotoxicity: at 62.6 µM (top of the series); also: nearly all actives have a fitted effect of over 55% in size
# How it was run: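 HEK293H PPARd-bla, 3000 cells/well; 5 h preincubation 37C/5% CO2; cpd in DMSO, 17 h 37C; B/G FRET substrate 2 h RT; CellTiter-Glo 30 min RT, luminescence.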
# [6] = target: Peroxisome proliferator-activated receptor gamma (Homo sapiens) (UniProt P37231); experiment: qHTS assay to identify small molecule agonists of the peroxisome proliferator-activated receptor gamma (PPARg) signaling pathway (AID 743094; active = well fitted activation curve with a large enough effect in the signal ratio in the repeat runs, not every such curve was filed as active; inconclusive = weak or mixed curves, or effect the other way; inactive = no such curve, though single readings can be large or run the other way; the % refers to the signal ratio; as to activation: % is scaled to controls: 0 for no effect and ±100 for the full control effect); details: HEK293H PPARg-UAS-bla, beta-lactamase FRET ratio, 17 h; activation: at 57 µM (top of the series) unless noted
# How it was run: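 Cells from the PPARg UAS-bla HEK293H line are plated and incubated 5 h at 37C. Compounds in DMSO are pinned in and left 17 h at 37C. LiveBLAzer B/G substrate is then added for 1 h at room temperature before fluorescence is measured.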
# [7] = qHTS assay for small molecule activators of the heat shock response signaling pathway - cell viability counter screen (AID 743209); details: HSE-bla HeLa viability, CellTiter-Glo luminescence, 5 h; activity change, negative = cytotoxicity: at 62.6 µM (top of the series) unless noted; also: nearly all actives have a fitted effect of over 50% in size
# How it was run: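 Cytotoxicity counter screen run in parallel with the HSE beta-lactamase reporter, using the same wells. HeLa HSE-bla cells received compound for 5 h at 37 C; ATP-based CellTiter-Glo luminescence was measured after 30 min at room temperature.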
# [8] = qHTS assay for small molecule activators of the heat shock response signaling pathway (AID 743210; active = well fitted activation curve with a large enough effect in the signal ratio in the repeat runs, with a control signal flat, not every such curve was filed as active; inconclusive = weak or mixed curves; the % refers to the signal ratio); details: HeLa HSE-bla reporter, beta-lactamase ratio, 5 h; activation: at 62.6 µM (top of the series) unless noted
# How it was run: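 Compound exposure lasted 5 h at 37 C in HeLa cells carrying a heat-shock-element-driven beta-lactamase reporter. Read-out: fluorescence intensity after 2.5 h room-temperature loading with LiveBLAzer B/G FRET substrate.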
# [9] = ratio activity, negative = inhibition: at 62.6 µM (top of the series) unless noted
# Potency is read from the fitted curve at half-maximal effect; tags tell the direction and shape of the fitted curve or compound fluorescence and quenching.
# Sequence of UniProt P37231 (P37231 whole entry, looked up): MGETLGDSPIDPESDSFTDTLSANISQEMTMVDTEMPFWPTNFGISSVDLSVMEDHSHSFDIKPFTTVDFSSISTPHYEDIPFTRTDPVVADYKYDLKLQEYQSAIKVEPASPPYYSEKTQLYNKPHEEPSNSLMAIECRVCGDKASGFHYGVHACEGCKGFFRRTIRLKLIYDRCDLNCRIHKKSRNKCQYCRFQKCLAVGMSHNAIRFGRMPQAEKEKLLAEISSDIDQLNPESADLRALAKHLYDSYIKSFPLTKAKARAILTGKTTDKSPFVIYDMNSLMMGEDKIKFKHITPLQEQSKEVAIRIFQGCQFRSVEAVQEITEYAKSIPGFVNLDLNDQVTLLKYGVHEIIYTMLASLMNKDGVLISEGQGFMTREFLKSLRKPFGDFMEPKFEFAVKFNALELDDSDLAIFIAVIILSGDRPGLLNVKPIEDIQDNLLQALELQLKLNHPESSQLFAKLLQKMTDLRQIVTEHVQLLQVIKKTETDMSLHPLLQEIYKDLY
# Sequence of UniProt P35869 (P35869 whole entry, looked up): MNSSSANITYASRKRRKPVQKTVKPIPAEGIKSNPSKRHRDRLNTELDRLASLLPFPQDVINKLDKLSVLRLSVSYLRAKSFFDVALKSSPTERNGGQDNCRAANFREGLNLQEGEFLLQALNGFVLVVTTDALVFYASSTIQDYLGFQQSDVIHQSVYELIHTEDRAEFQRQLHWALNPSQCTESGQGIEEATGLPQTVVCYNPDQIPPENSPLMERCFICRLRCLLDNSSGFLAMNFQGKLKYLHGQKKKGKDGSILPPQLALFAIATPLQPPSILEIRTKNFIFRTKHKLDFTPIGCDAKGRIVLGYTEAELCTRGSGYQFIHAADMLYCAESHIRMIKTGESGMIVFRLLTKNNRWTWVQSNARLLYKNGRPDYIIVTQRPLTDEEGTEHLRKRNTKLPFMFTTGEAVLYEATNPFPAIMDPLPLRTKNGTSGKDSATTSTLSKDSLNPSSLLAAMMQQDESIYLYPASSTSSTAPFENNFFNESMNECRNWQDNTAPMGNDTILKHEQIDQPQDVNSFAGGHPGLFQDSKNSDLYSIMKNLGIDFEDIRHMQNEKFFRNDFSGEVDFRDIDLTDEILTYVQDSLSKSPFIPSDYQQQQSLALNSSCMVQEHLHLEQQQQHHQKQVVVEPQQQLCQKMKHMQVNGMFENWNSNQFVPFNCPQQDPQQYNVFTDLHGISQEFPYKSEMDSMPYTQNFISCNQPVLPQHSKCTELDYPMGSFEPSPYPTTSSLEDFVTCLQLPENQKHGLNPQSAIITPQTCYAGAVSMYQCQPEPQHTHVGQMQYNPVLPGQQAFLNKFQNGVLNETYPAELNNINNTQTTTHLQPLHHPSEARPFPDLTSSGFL
smiles,measurement,setting,value
CCC(Cl)CC(Cl)C(Cl)C(Cl)C(Cl)C(C)Cl (stereo unspecified),Potency,[1],"inconclusive: 1.33 µM [activator, partial curve, poor fit]"
same,"ratio activity, negative = inhibition",[2]; [9],inactive: -28.9% [at 13.2 µM]
same,"activity change, negative = cytotoxicity",[3],inactive: -22.8% [at 13.2 µM]
same,activation,[4],inactive: 7.21% [at 18.1 µM]
CC(C)OC(=O)c1cc2c(OCC(O)CNC(C)(C)C)cccc2[nH]1 (stereo unspecified),Potency,[1],"inconclusive: 26.6 µM [activator, partial curve]"
same,"ratio activity, negative = inhibition",[2]; [9],inconclusive: 15.8%
same,Potency,[3],"inconclusive: 11.9 µM [cytotoxic, partial curve, poor fit]"
same,Potency,[4],"inconclusive: 21.1 µM [falling, partial curve, poor fit]"
same,Potency,[5],"inconclusive: 10.6 µM [cytotoxic, partial curve, poor fit]"
C[C@@H](O)[C@H]1C(=O)N2C(C(=O)O)=C(S[C@@H]3CN[C@H](C(=O)N(C)C)C3)[C@H](C)[C@H]12,Potency,[1],"inconclusive: 33.5 µM [activator, partial curve, poor fit]"
same,"ratio activity, negative = inhibition",[2]; [9],inconclusive: 12.5%
same,Potency,[4],"inconclusive: 13.3 µM [falling, partial curve, poor fit]"
CCOC(=O)C(C)Oc1ccc(Oc2cnc3cc(Cl)ccc3n2)cc1 (stereo unspecified),Potency,[1],"inconclusive: 35.2 µM [activator, partial curve] and inconclusive: 18.1 µM [activator, full curve, poor fit]"
same,Potency,[6],inactive
same,"ratio activity, negative = inhibition",[2]; [9],inconclusive: 0.506%
same,Potency,[4],"inconclusive: 70.3 µM [rising, partial curve, poor fit]"
COc1cc2ncnc(Nc3ccc(F)c(Cl)c3)c2cc1OCCCN1CCOCC1,Potency,[1],active: 15 µM
same,"ratio activity, negative = inhibition",[2]; [9],inconclusive: -8.53%
same,Potency,[3],inactive
same,activation,[4],inconclusive: 8.13%
NC(=O)Nc1ccc(Cl)c(Cl)c1,Potency,[1],"inconclusive: 34.3 µM [activator, partial curve, poor fit]"
same,Potency,[6],inactive
same,Potency,[2]; [9],"inconclusive: 21.8 µM [inhibitor, partial curve, poor fit]"
same,Potency,[4],"inconclusive: 68.4 µM [rising, single point]"
O=Cc1c(Cl)cccc1Cl,Potency,[1],"inconclusive: 63.3 µM [activator, partial curve]"
same,Potency,[6],inactive
same,Potency,[3],"inconclusive: 56.8 µM [rising, single point]"
same,activation,[4],inconclusive: 13.5% [at 94.8 µM]
CN(C)C(=O)Nc1ccc(Oc2ccc(Cl)cc2)cc1,Potency,[1],inactive
same,Potency,[2]; [9],"inconclusive: 30.9 µM [inhibitor, partial curve]"
same,Potency,[4],active: 19.3 µM
C1=CCC2CC=CC2C1 (stereo unspecified),Potency,[1],"inconclusive: 68.5 µM [activator, partial curve, poor fit]"
same,Potency,[2]; [9],inactive
same,Potency,[4],"inconclusive: 19.3 µM [rising, partial curve, poor fit]"
Cc1ncc(COP(=O)(O)O)c(C=O)c1O,Potency,[1],inactive
same,Potency,[2]; [9],inactive
same,Potency,[4],"inconclusive: 13.3 µM [falling, partial curve, poor fit]"
SCCc1cnccn1,Potency,[1],"inconclusive: 30.6 µM [activator, full curve, poor fit]"
same,activation,[6],inconclusive: 4.53%
same,Potency,[2]; [9],inactive
same,Potency,[4],"inconclusive: 68.6 µM [falling, single point]"
same,Potency,[7],"inconclusive: 61.6 µM [rising, partial curve, poor fit]"
same,Potency,[8],inconclusive: 57.1 µM [activator]
same,Potency,[5],"inconclusive: 43.6 µM [cytotoxic, single point]"
O=C1CCCc2c1cc1ccc3cccc4ccc2c1c34,Potency,[1],active: 69.4 µM
same,Potency,[6],"inconclusive: 55.6 µM [fluorescent, partial curve]"
same,Potency,[2]; [9],inconclusive: 55.6 µM [fluorescent]
same,Potency,[4],inconclusive: 69.4 µM
same,Potency,[7],"inconclusive: 49.6 µM [cytotoxic, single point]"
same,Potency,[8],inconclusive: 55.6 µM [activator]
same,Potency,[5],"inconclusive: 44.2 µM [cytotoxic, partial curve, poor fit]"
Cc1ccc([N+](=O)[O-])c(C)c1,Potency,[1],inactive
same,"ratio activity, negative = inhibition",[2]; at 62.6 µM (top of the series),inactive: -0.873%
same,"ratio activity, negative = inhibition",[2]; [9],inconclusive: 12.2%
CS(=O)(=O)c1ccc([C@@H](O)[C@@H](CF)NC(=O)C(Cl)Cl)cc1,Potency,[1],inactive
same,Potency,[2]; [9],inactive
O=c1[nH]c2ccccc2n1CCCN1CCN(C(c2ccccc2)c2ccccc2)CC1,Potency,[1],"inconclusive: 16.8 µM [activator, partial curve]"
same,Potency,[6],"inconclusive: 16.9 µM [rising, partial curve, poor fit]"
same,Potency,[2]; [9],inconclusive: 33.5 µM [inhibitor]
same,Potency,[4],inconclusive: 33.5 µM
same,Potency,[8],"inconclusive: 29.8 µM [falling, partial curve, poor fit]"
